In paper PMC4336329 (PLoS ONE, 2015):
In all, about 310,000 compounds went through this assay and about 14,000 (4.5%) showed an effect of 50% or more. Effects have a minus sign here. Some of the results follow.

Molecular target: human ether-à-go-go-related gene (hERG) potassium channel (human, UniProt Q12809)
Test: primary screen, population patch clamp on CHO cells stably expressing hERG
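Further: peak tail current of the secondary pulse compared with the same well before compound.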

Chain of human ether-à-go-go-related gene (hERG) potassium channel (Q12809 whole entry, looked up): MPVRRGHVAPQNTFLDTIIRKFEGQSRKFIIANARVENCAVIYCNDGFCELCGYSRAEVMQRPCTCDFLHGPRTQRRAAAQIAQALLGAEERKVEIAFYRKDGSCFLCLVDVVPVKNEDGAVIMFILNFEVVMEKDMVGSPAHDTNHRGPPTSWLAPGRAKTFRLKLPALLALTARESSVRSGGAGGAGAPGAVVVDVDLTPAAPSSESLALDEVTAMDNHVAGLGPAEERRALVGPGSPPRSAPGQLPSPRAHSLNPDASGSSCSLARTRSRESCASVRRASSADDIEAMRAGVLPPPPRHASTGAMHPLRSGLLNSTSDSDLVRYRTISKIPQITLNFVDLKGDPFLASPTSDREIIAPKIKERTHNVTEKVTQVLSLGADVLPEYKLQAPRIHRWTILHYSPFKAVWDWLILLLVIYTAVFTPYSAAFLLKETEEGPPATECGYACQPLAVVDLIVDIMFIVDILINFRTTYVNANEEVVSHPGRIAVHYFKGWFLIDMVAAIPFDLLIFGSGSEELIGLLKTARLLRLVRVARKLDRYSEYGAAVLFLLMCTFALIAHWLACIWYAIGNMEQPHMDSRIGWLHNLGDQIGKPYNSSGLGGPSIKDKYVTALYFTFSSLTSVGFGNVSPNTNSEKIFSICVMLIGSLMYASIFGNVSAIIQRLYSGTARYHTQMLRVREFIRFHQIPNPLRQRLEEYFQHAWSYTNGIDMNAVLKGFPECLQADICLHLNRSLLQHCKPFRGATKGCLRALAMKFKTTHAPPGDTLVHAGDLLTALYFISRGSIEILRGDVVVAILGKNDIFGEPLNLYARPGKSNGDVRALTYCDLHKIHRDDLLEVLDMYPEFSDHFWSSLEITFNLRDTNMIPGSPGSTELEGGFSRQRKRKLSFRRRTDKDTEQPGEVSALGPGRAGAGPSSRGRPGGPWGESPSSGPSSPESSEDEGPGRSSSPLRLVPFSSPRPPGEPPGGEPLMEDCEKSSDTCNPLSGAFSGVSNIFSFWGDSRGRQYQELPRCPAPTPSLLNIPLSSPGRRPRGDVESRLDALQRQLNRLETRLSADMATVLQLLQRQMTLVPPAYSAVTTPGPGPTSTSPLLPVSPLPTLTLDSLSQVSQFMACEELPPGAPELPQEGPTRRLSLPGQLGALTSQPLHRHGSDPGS

Compound	hERG current change (%, negative = inhibition) at 10uM [%]
COc1ccc(NS(=O)(=O)c2ccc(SC)cc2)cc1	-13.7
CC1CCCN(S(=O)(=O)c2ccc3[nH]c4c(c3c2)CCCC4)C1 (centres unmarked)	-24.9
CCc1nnc(NC(=O)CSc2nnc(-c3ccccc3NC(=O)c3ccccc3)o2)s1	5.78
COc1ccc(CC(=O)NCC2(c3ccc(OC)c(OC)c3)CCCC2)cc1	-20.8
O=C(CN1C(=O)c2ccccc2C1=O)NCCOc1ccccc1	-2.09
CCc1nc2ccccc2n1CCC(=O)O.Cl	-5.88
O=C(CNC(=O)c1ccc(Br)o1)NCc1cccc(Cl)c1	1.86
CC(=O)Nc1ncc(N=Nc2cccc(C(F)(F)F)c2)s1	13.5
O=C(NCCc1nnc2ccc(N3CCCCCC3)nn12)c1ccccc1	-8.74
COC(=O)c1ccccc1NC(=O)CCS(=O)(=O)c1ccc(Br)s1	2.51
CCOCCn1ccc2c(OCC(=O)Nc3cc(OC)ccc3OC)cccc2c1=O	-0.0541
COc1cccc(-c2nnc(SCC(=O)Nc3ccc(OC)c(OC)c3)n2N)c1	14.3
O=C(C1CCCN(Cc2ccccc2Br)C1)N1CCCCC1.O=C(O)C(=O)O (centres unmarked)	-10.8
CSc1ncccc1C(=O)NC1CCCc2c1cnn2-c1ccc(C)c(C)c1 (centres unmarked)	12.5
COC(=O)c1c(NC(=O)CN2CCC3(O)CCCCC3C2c2ccccc2OC)sc(C)c1C (centres unmarked)	4.06
COc1cc(OC)c(OC)cc1CN1CCN(C(=O)CC(C)C)CC1	10
CCOCCCNC(=O)c1ccc2c(c1)N=C(CC)c1cc(Br)ccc1S2	2.7
C[C@@H]1CC[C@@]2(O[C@@H](CCO)C[C@H](O)[C@H]2O)O1	-2
Nc1nc(-c2ccccc2)cs1	-3.08
O=C(N/C(=C/c1cccs1)C(=O)N1CCOCC1)c1ccco1	-1.03
COCCCNC(=O)CNC(=O)c1nn(-c2ccc(OC)cc2OC)c(=O)c2ccccc12	13.9
COc1cc2cc(CCOC(=O)c3ccc(F)cc3)oc(=O)c2cc1OC	4.44
NC(N)=NS(=O)(=O)c1ccc(NC(=S)NC(=O)c2ccccc2)cc1	3.96

Compound	hERG current change (%, negative = inhibition) at 10uM [%]
O=C(O)CCc1ccc(-c2ccc(F)cc2)n1CCC(=O)O	14.9
CCCOc1ccc(C=Nc2ccc(OC)c(S(=O)(=O)N3CCOCC3)c2)c(O)c1	12
O=C(OCc1ccc([N+](=O)[O-])cc1)c1ccccn1	-28.2
COc1ccccc1N1C(=O)C2C(C(=O)c3ccccc3)=NN(c3ccccc3OC)C2C1=O (centres unmarked)	7.15
CC1Oc2ccccc2C=C1/C=N/NC(=O)c1ccncc1 (centres unmarked)	-13.4
O=S(=O)(c1ccccc1)N1CCCC1c1nc2ccccc2s1 (centres unmarked)	-19.2
COc1cccc(NC(=O)Cc2nnc(SCCOc3ccccc3)n2C)c1	-10.1
Cc1c(C(Nc2ccccn2)c2ccccc2)c(=O)n(-c2ccccc2)n1C (centres unmarked)	-4.59
Cc1ccc(S(=O)(=O)N2CCN(C(=O)c3ccc(-n4cncn4)c([N+](=O)[O-])c3)CC2)cc1	-52.5
COC(=O)CCSCC(=O)Nc1ccc(S(=O)(=O)N2CCOCC2)cc1OC	5.68
O=C(c1ccc(NS(=O)(=O)c2cccc([N+](=O)[O-])c2)cc1)N1CCCCCC1	-23.1
CC(=O)/C(C#N)=C1\NC(=O)C(Cc2ccccc2)S1 (centres unmarked)	19.7
CSc1nc(-c2ccccc2)nc2c1COC(C)(C)C2	5.03
CC1(C)C/C(=N\O)c2cc3c(nc2C1)CCCC3	9.17
CCCCN(CCCC)CC(O)CN1C(=O)NC(C)(C)C1=O (centres unmarked)	-1.82
CCOC(=O)[C@@H]1[C@H]2COc3cc(OC)ccc3[C@@H]2N2C(=O)N(c3ccc(C)cc3)C(=O)[C@@]12C	-6.53
CCOC(=O)c1ccc(-c2n[nH]c(=O)c3ccccc23)cc1	-3.55
COc1ccccc1CNC(=O)c1sccc1C	-14.9
O=C1/C(=C/c2ccc(C(=O)O)cc2)CCC/C1=C\c1ccc(C(=O)O)cc1	-24.1
CCN(CC)c1ccc2c(C)cc(=O)oc2c1	3.55
O=C(COC(=O)c1ccccc1Br)NCCN1C(=O)CSC1=O	0.442
O=C(Nc1ccc(Cl)cc1)N1CCc2ccccc2C1	4.51
Cl.Fc1ccccc1CCNCc1cccc(Cl)c1Cl	3.56

Compound	hERG current change (%, negative = inhibition) at 10uM [%]
CCOC(=O)c1c(C)nc2ccccc2c1-c1ccccc1.Cl	-30.8
COc1ccc2oc(=O)c(-c3nc4ccccc4o3)cc2c1	-4.29
COc1ccc(CCNC(=O)CC(c2ccccc2)c2cc(C)ccc2O)cc1OC (centres unmarked)	4.09
Cc1nc(C(=O)Nc2cc(Cl)ccc2Cl)nn1-c1cc(OC(C)C)c(Cl)cc1Cl	-4.89
COc1ccccc1OCC(=O)NCCS(=O)(=O)N1CCN(c2ccc(F)cc2)CC1	-60.8
CN1Cc2sc(N)c(C#N)c2CC1(C)C.Cl	-13.6
O=C(NCc1ccco1)/C(=C\c1cccs1)NC(=O)c1ccco1	-0.334
S=C(NCCc1ccccn1)Nc1ccccc1Cl	19.3
Cc1ccc(C(=O)Nc2sc3c(c2C(=O)O)CCCCC3)o1	11.3
NS(=O)(=O)c1ccc(NC(=S)N2CCN(S(=O)(=O)c3ccc(F)cc3)CC2)cc1	10.1
O=C1N(Cc2cccnc2)C[C@@H]2C[C@@H](c3ccc4nonc4c3)N3CCC[C@@]123	-59.1
CC(C)Cc1nnc(NC(=O)C2CCN(C(=O)c3ccc(Cl)cc3)CC2)s1	-29.2
COCc1cc(C)nc(N2CCc3ccccc32)c1C#N	3.29
O=C(Cn1cnc2ccccc2c1=O)c1ccc(OC(F)F)cc1	-30.9
CCC(=O)Nc1nc2ccc(NC(=O)c3cc(OC)c(OC)c(OC)c3)cc2s1	-9.76
COCc1[nH]c(=S)[nH]c(=O)c1C	16.7
CCOc1ccc(OCCC(=O)NNC(=O)c2nn(C)c(=O)c3ccccc23)cc1	-13.1
CCC(C)N1CCN(C(=O)c2cccs2)CC1.O=C(O)C(=O)O (centres unmarked)	-10.6
CCOC(=O)c1[nH]c2ccc(OC)cc2c1NC(=S)N1CCN(c2cccc(C)c2C)CC1	21.7
COc1cccc(NC(=O)CCN2C(=O)C3CC=CCC3C2=O)c1 (centres unmarked)	-21.4
CC(Oc1ccc2c3c(c(=O)oc2c1)CCCC3)C(=O)NCC1CCC(C(=O)O)CC1 (centres unmarked)	13.2
O=C(O)CC(Cn1cnnn1)c1ccccc1 (centres unmarked)	25
CC1C(=O)C(C)C(c2ccc3c(c2)OCO3)NC1c1ccc2c(c1)OCO2 (centres unmarked)	4.38

Compound	hERG current change (%, negative = inhibition) at 10uM [%]
CCOc1cc(/C=C\c2nc(O)c([N+](=O)[O-])c(=O)[nH]2)ccc1OC(C)CC (centres unmarked)	5.36
CC(Sc1c[nH]c2ccccc12)C(=O)O (centres unmarked)	4.26
CCn1c(CC(=O)Nc2ccccc2)nnc1SCc1nc2ccccc2c(=O)[nH]1	-6.36
COc1ccc(NC(=O)CN2CCN(CC(=O)Nc3ccc4c(c3)OCO4)CC2)cc1	-78.1
CCOc1ccc(OCC)c(NC(=O)CSc2nc3ccccc3c(=O)n2C)c1	5.03
COc1ccc(CC(=O)Nc2nn(C)c3nc4c(C)cccc4cc23)cc1	-1.44
O=C(Nc1ccc(F)cc1)Nc1csc2ccccc12	2.24
COCCCNC(=O)C1CCN(c2ncccn2)CC1	6.48
OC1(Cc2cc(-c3ccccc3)no2)CCN(CCCc2ccccc2)CC1	-77
CCNC(=O)COC(=O)C1CCN(S(=O)(=O)c2ccc3c(c2)OCCO3)CC1	4.94
CN(C)S(=O)(=O)c1ccc2c(c1)C(=NNC(N)=O)c1cc(S(=O)(=O)N(C)C)ccc1-2	9.19
Cc1nc(-c2ccc(NS(C)(=O)=O)cc2)cs1	0.921
CCCCOC(=O)Nc1cc(C(=O)OC)ccc1C(=O)OC	-18.4
CC(C)c1[nH]nc2c1C(Cc1ccccc1)C(C#N)=C(N)O2 (centres unmarked)	3.09
CSCCC(NC(=O)c1cccc(C)c1)C(=O)O (centres unmarked)	29.9
O=C(Cc1cccs1)N(c1ccccc1)C1C=CS(=O)(=O)C1 (centres unmarked)	10.6
Cc1ccccc1OCC(=O)N/N=C/c1ccc([N+](=O)[O-])o1	-4.18
NS(=O)(=O)c1cc([N+](=O)[O-])ccc1NCc1cccnc1	-14.5
COc1ccc(C(=O)N=C2SC3CS(=O)(=O)CC3N2c2ccc(C(C)=O)cc2)cc1 (centres unmarked)	11.7
Nc1nc(NCCO)nc(NCc2ccccc2)c1[N+](=O)[O-]	7.37
